Measured values: PMC9600267, “The Antibacterial Type VII Secretion System of Bacillus subtilis: Structure and Interactions of the Pseudokinase YukC/EssB” (mBio, 2022)
No constants are given. Whether binding was seen depends on the method and setting. Some results given as binding are weak or reduced against the parent protein; the word gives no strength. Tags and fused reporters may be left off the sequences shown.

Biological target: T1, YukB, bacterial two-hybrid fusion (Bacillus subtilis 168) (UniProt C0SPA7)
T1 sequence: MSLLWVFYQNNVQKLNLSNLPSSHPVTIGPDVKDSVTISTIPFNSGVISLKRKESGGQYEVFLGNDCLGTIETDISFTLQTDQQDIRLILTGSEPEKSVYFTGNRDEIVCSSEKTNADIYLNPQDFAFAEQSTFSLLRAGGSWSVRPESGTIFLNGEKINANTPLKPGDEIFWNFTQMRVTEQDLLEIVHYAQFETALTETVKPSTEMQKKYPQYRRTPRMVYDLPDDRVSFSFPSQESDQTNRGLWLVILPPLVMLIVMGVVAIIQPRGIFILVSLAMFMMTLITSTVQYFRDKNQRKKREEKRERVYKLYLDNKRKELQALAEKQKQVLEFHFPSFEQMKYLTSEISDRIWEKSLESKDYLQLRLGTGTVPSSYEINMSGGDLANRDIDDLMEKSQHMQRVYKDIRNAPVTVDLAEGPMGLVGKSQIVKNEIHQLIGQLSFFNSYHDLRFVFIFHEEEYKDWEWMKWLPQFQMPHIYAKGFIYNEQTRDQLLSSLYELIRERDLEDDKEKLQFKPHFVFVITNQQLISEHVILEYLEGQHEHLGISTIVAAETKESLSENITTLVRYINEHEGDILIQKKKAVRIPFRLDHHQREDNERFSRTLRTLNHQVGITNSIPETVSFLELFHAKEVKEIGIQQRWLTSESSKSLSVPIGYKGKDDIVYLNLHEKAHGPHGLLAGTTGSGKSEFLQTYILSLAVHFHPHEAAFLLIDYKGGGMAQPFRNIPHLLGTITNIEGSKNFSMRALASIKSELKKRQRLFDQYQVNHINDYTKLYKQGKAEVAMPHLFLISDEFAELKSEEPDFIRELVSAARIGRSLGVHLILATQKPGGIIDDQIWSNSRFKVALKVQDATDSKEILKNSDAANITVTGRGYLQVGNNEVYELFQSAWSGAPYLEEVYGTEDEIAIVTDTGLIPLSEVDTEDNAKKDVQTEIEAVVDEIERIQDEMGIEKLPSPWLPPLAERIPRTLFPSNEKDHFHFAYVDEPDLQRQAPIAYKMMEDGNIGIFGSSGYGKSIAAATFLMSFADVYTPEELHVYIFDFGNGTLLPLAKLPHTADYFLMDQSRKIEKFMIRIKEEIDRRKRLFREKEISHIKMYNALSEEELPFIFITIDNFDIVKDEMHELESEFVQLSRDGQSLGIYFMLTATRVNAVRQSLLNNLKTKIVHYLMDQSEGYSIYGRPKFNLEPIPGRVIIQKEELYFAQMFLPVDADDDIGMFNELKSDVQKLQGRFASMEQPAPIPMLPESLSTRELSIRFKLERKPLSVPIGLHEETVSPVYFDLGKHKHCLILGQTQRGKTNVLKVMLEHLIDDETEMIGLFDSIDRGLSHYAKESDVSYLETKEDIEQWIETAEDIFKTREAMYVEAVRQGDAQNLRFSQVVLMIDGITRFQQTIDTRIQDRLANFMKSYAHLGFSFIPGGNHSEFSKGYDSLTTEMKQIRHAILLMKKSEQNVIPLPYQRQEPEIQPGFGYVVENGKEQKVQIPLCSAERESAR
Experiment: two-hybrid; bacterial two-hybrid (BACTH) in E. coli BTH101; T25 (pKT25/pKNT25) and T18 (pUT18/pUT18C) fusions; spots on LB with X-Gal and IPTG, 25°C, imaged after 48 h

binding: binds
B1: YukC (full length), bacterial two-hybrid fusion (protein, UniProt P71070 1-451)
chain: MSGEQKSYLENQLEAVAEKTDAGYTFTFQREKIKLLDGLEANVIKDINPFFHKEIDVTDDEVIITIQPPSSYKAFRFMKAKDKKSKWQFAYQLVQAVQQHNLSRLNLIVAPENIVFDKGLTPYFLHYGVKESIPPYERDEERVWQELKAAAALAVDGAFAFEDYLKFNETLTFSAEAKAILDAESYDDLLELIQTHIDELEAKAKTYIHIPRKKWNIQRYIGLGLIVLLVPALIYSMYALFFAQPKHQAIVDSNRAFLNKQYSEVISTLSKYDAESLPESVQYQLATSYVEVENLGSAKTKNIENNLVTLQSDPQHFLYWIDYGRGEYKEAISIGRKLEYNDYIYFALAKYKQQLLSEDTNDEDIQKELDSVNSELEKAQKERQENKQSNSETSLVDTSEEQTQTDEEKQAEEKAAEEKAAAEEKAKKEEQKEKEDEKKETEKKDEKKDDK
